From PubChem BioAssay AID485364 (National Center for Advancing Translational Sciences (NCATS), 2010)
In all, about 360,000 compounds went through this assay and about 11,000 (3.1%) were called active. The shares of active, inactive and inconclusive entries below differ from those in the screen. Calls follow the shape of the dose curve; as a rule, active = well fitted inhibition curve with a large enough effect; inconclusive = small, poorly fitted or top-dose-only effect; inactive = no such curve, though single readings can be large or run the other way. Potencies of inconclusive entries are left out as doubtful fits.

Biological target: Schistosoma mansoni thioredoxin glutathione reductase (TGR) (UniProt Q962Y6)
Experiment: qHTS Assay for the Inhibitors of Schistosoma Mansoni Peroxiredoxins; also: nearly all actives have a fitted effect of over 60% in size
Conditions: purified TGR, DTNB reduction, TNB absorbance 405 nm; series mostly up to 114 µM
Procedure, shortened: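 First, TGR (20 nM dispensed) and NADPH were mixed with compound. Second, a 15 min room-temperature incubation followed. Third, further NADPH and then DTNB were added to start the reaction. Finally, TNB absorbance was monitored kinetically.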
Potency is read from the fitted curve at half-maximal effect; tags tell the direction and shape of the fitted curve.

Row | SMILES | Potency
1 | S=C(Nc1ccc(Br)cc1Cl)NN1CCOCC1 | inconclusive [inhibitor, partial curve]
2 | c1coc(CNc2nc3nonc3nc2NCc2ccco2)c1 | active: 50.1 µM
3 | CC(C)Oc1ccc(C(=O)Nc2ccc(C(F)(F)F)n(C)c2=O)cc1 | inactive
4 | CCN1CCc2nc(NC(=O)c3ccc(S(=O)(=O)N(C)C)cc3)sc2C1 | inactive
5 | CCOc1ccccc1CN1CCNC(=O)C1CC(=O)NCCc1ccccn1 (stereo not drawn) | inconclusive [inhibitor, single point]
6 | C[n+]1ccccc1/C=C/c1c(F)cccc1F | active: 12.6 µM
7 | Cc1ccc(C)n1-c1cccc(NC(=O)c2ccccc2)c1 | inconclusive [inhibitor, single point]
8 | COC(=O)c1sccc1-c1ccc(C(N)=O)o1 | active: 50.1 µM
9 | O=c1[nH]c2cc3c(cc2cc1CN(Cc1cccnc1)Cc1nnnn1Cc1ccco1)OCCO3 | active: 14.1 µM
10 | COc1ccc(C(=O)C2CCCN(C(=O)c3ccccc3C(C)=O)C2)cc1F (stereo not drawn) | active: 39.8 µM
11 | O=C(N/N=C/c1c(O)n(CCc2ccc(F)cc2)c(=O)[nH]c1=O)c1ccncc1 | inconclusive [inhibitor, full curve]
12 | FC(F)(F)c1ccc2c(c1)ncc1c(-c3ccccc3)nn(-c3ccccc3)c12 | inactive
13 | CCOc1ccccc1CNC(=O)C1CCN(C(=O)N2CCOc3ccc(Cl)cc32)CC1 | inactive
14 | Cc1c(N/C=C/C(=O)c2cccs2)c(=O)n(-c2ccccc2)n1C | active: 44.7 µM
15 | CCC(=O)N1CCc2cc(CNC(=O)Cc3ccc(OC)c(OC)c3)ccc21 | inconclusive [inhibitor, single point]
16 | COc1cccc(NC(=O)CN(C)C(=O)c2cc(-c3ccco3)nc3ccccc23)c1 | inconclusive [inhibitor, partial curve]
17 | C=CCOc1cccc(C2C(C(=O)c3ccco3)=C(O)C(=O)N2CCN2CCOCC2)c1 (stereo not drawn) | active: 25.1 µM
18 | CCC1CCCCN1C(=O)N[C@@H](Cc1ccccc1)C(=O)O (stereo partly drawn) | inconclusive [inhibitor, full curve, poor fit]
19 | CN1CCC(=NNC(=O)c2cc(-c3ccc(Cl)cc3)n[nH]2)CC1 | inactive
20 | CCc1ccc(N2CC(C(=O)NNC(=O)c3ccc(F)cc3)CC2=O)cc1 (stereo not drawn) | inactive
21 | O=C(NC(=S)Nc1cccc(F)c1)c1cccc([N+](=O)[O-])c1 | active: 20 µM
22 | CC(=O)COC(=O)C1CCN(S(=O)(=O)c2cc([N+](=O)[O-])ccc2Cl)CC1 | active: 7.94 µM
23 | CCC(=NC1CCN(Cc2ccccc2)CC1)c1c(O)[nH]c(=O)[nH]c1=O | inconclusive [inhibitor, partial curve]
24 | Cc1ccc(C2C(C(=O)c3cccs3)=C(O)C(=O)N2CCN2CCOCC2)o1 (stereo not drawn) | active: 20 µM
25 | CCn1c(SCC(=O)c2ccc(C)cc2)nnc1-c1ccoc1C | inconclusive [inhibitor, partial curve]

Row | SMILES | Potency
26 | N#Cc1ccc(OCC(=O)N/N=C2\CCc3ccccc32)cc1 | inactive
27 | C=C1C(=O)O[C@@H]2[C@H]1CC[C@H](C)[C@]1(O)CCC(=O)[C@@]21C | inconclusive [inhibitor, partial curve]
28 | Cc1oc(-c2ccccc2F)nc1CS(=O)CC(=O)NC1CC1 (stereo not drawn) | inconclusive [inhibitor, partial curve, poor fit]
29 | CC(=O)Nc1ccc(N2C(=O)CC(N3CC(C)OC(C)C3)C2=O)cc1 (stereo not drawn) | active: 22.4 µM
30 | O=C(c1cccs1)N1CCCC1 | inconclusive [inhibitor, single point]
31 | C=CCN1CCN(C(c2cc(OC)ccc2OC)c2nnnn2CC2CCCO2)CC1 (stereo not drawn) | inconclusive [inhibitor, partial curve]
32 | O=C(CCNc1cccc(F)c1)c1cccc([N+](=O)[O-])c1 | active: 0.282 µM
33 | Cc1oc(-c2ccc(C(=O)NCCCOC(C)C)cc2)nc1CS(=O)(=O)c1ccccc1 | inconclusive [inhibitor, partial curve]
34 | CCc1nc(C)cn1S(=O)(=O)c1ccc([N+](=O)[O-])cc1 | inconclusive [inhibitor, partial curve]
35 | Cc1csc(=Nc2ccc(S(=O)(=O)N3CCOCC3)cc2)n1Cc1ccco1 | inconclusive [inhibitor, partial curve]
36 | CN(C)S(=O)(=O)c1ccc(Cl)c(NC(=O)COC(=O)/C=C/c2ccco2)c1 | active: 35.5 µM
37 | Cn1c(=O)n(Cc2ccccc2Cl)c(=O)c2c1nc1n2CCN1c1ccccc1 | inactive
38 | CC(C)SC1=NC(C)(C)C=C(/C=C/c2ccc(Cl)cc2Cl)N1 | active: 15.8 µM
39 | CC(=O)c1ccccc1OC(=O)COc1ccc([N+](=O)[O-])cc1 | inconclusive [inhibitor, partial curve]
40 | CC(=O)Oc1ccc2c(=O)c(Oc3ccccc3)coc2c1OC(C)=O | inconclusive [inhibitor, partial curve]
41 | Cc1sc2ccccc2[n+]1CCC(C)S(=O)(=O)[O-] (stereo not drawn) | active: 2 µM
42 | O=C(CSc1nnc(-c2cnccn2)n1Cc1ccco1)c1ccc(Cl)c(Cl)c1 | inconclusive [inhibitor, partial curve]
43 | COc1ccc(NC(=O)c2cc(OC)c(OC)c(OC)c2)cn1 | inconclusive [inhibitor, partial curve]
44 | O=C(COC(=O)CCC1CCCC1)Nc1ccc(Cl)cc1F | inconclusive [inhibitor, single point]
45 | Cc1cc(OCC[N+]2(C)CCCCC2)nc2ccccc12 | inconclusive [inhibitor, partial curve]
46 | CC(C)SC1=NC(C)(C)C=C(/C=C/c2c(Cl)cccc2Cl)N1 | active: 20 µM
47 | S=C(NCc1ccc2c(c1)OCO2)Nc1ccc2nsnc2c1 | inconclusive [inhibitor, full curve]
48 | CN(C)c1ccc(C(=O)N/N=C/c2cc(Br)cc(Br)c2O)cc1 | inactive
49 | CC(=O)C1=C(C)NC(SCC(=O)c2ccccc2)=C(C#N)C1c1ccco1 (stereo not drawn) | inconclusive [inhibitor, single point]
50 | O=C1CN(C(=O)c2ccccc2)c2ccccc2N1 | inactive

Row | SMILES | Potency
51 | COc1ccc(C2SCC(C(=O)NCc3ccc(F)cc3)N2C(C)=O)cc1 (stereo not drawn) | inconclusive [inhibitor, single point]
52 | Cc1ccccc1SCCNC(=O)c1ccccc1Br | inactive
53 | O=c1c2ccccc2[se]n1-c1ccccc1 | inconclusive [inhibitor, partial curve]
54 | CCn1c(O)c(N=NC(=O)C(O)c2ccccc2)c2ccccc21 (stereo not drawn) | inactive
55 | O=c1[nH]c(=S)n(C2CCCCC2)c(O)c1C=NCCN1CCOCC1 | inconclusive [inhibitor, partial curve]
56 | C#CCSc1nccc(-c2nn(-c3ccc(C)cc3)ccc2=O)n1 | inconclusive [inhibitor, partial curve]
57 | COC(=O)c1cc(C(=O)OC)cc(N2C(=O)CC(N3CCN(c4ccccc4)CC3)C2=O)c1 (stereo not drawn) | inconclusive [inhibitor, single point]
58 | COc1ccc(-c2cc(C(F)(F)F)nc(S(C)(=O)=O)n2)cc1OC | active: 31.6 µM
59 | CCCCN1C(=O)NC(=O)C2(Cc3c(nc4ccccn4c3=O)N3CCc4ccccc4C32)C1=O (stereo not drawn) | inconclusive [inhibitor, partial curve]
60 | O=C(OCc1nnc(-c2ccccc2)o1)c1ccc([N+](=O)[O-])s1 | inconclusive [inhibitor, partial curve]
61 | CCN(CC)c1nc2c(C)cccn2c(=O)c1C=C1C(=O)NC(=O)NC1=O | inconclusive [inhibitor, full curve]
62 | O=C(NCCS(=O)(=O)N1CCN(c2ccccc2F)CC1)c1ccccc1C(F)(F)F | inconclusive [inhibitor, single point]
63 | CC(=O)c1sc(NC(=O)c2ccc(Cn3cc(Br)cn3)o2)nc1C | active: 50.1 µM
64 | COc1ccc(NC(=O)C2CCN(S(=O)(=O)c3cccc4nonc34)CC2)c(OC)c1 | inactive
65 | CCC/C(=N/NC(=O)c1ccc2c(c1)OCO2)c1cccs1 | inactive
66 | CCC(=O)Nc1ccc(C=C(C(C)=O)C(C)=O)cc1 | inconclusive [inhibitor, partial curve]
67 | O=C(NC(=S)Nc1ccc(S(=O)(=O)Nc2nccs2)cc1)c1ccccc1 | active: 35.5 µM
68 | CCc1cccc(N=c2c([N+](=O)[O-])nn(-c3ccc4c(c3)OCCO4)n2O)c1 | inconclusive [inhibitor, partial curve]
69 | COc1ccccc1C(=O)Nc1ccc2nc3n(c(=O)c2c1)CCCC3 | inconclusive [inhibitor, partial curve]
70 | O=C1C2C3C=CC(O3)C2C(=O)N1CC(O)c1ccccc1 (stereo not drawn) | active: 11.2 µM
71 | Cc1ccc(CN2CCN(Cc3cn(C(C)C)c4ccccc34)CC2CCO)o1 (stereo not drawn) | inconclusive [inhibitor, partial curve]
72 | CCCCCCSc1ccc([C@@H]2[C@H]3C(=O)N(C)C(=O)[C@H]3[C@]3(C(=O)OC)CCCCN23)cc1 | inconclusive [inhibitor, partial curve]
73 | COc1cc(NS(=O)(=O)c2ccc(NC(=S)NC(=O)c3ccco3)cc2)nc(OC)n1 | active: 31.6 µM
